# The other results are listed elsewhere or left out. Most values come without repeats; read them as rough.
# System: Candida albicans DPL-15
# Assay: growth (OD600) after compound treatment (apparently relative to screen median) (relative growth (fraction; screen median 1.02)); DPL-15 is a caspofungin-resistant clinical isolate; higher = more fungal growth (less antifungal activity)
# Settings: 25 µM; RPMI 1640; 48 h; 30 °C
row,SMILES,growth
1,CC(C)CCNS(=O)(=O)NC(C)(C)C,1.17
2,COC(=O)C1=C(C)N(Cc2ccccc2)C(NCc2ccccc2)=N[C@H]1c1ccccc1,0.933
3,Cc1cc2c(nc1C)CCCN2S(=O)(=O)c1ccc(F)cc1,0.927
4,COc1ccccc1N1C(=O)c2[nH]nc(CC(C)C)c2C1c1ccccc1Br (stereo not drawn),1.11
5,CC(C)Cc1n[nH]c2c1C(c1ccc3c(c1)OCO3)NC2=O (stereo not drawn),0.946
6,COc1ccc([C@@]23Oc4cc(OC)cc(OC)c4[C@]2(O)[C@@H](O)[C@H](C(=O)c2ccco2)[C@H]3c2ccccc2)cc1,0.951
7,CC(=O)C1=C(C)N(Cc2ccccc2)C(=O)NC1c1ccc(Cl)cc1 (stereo not drawn),0.972
8,COc1ccccc1Cn1nc(C(C)C)c2c1C(=O)NC2c1ccccc1 (stereo not drawn),0.898
9,COC(=O)C1=C(C)N(Cc2cccc(F)c2)C(=S)NC1c1cccc(Br)c1 (stereo not drawn),0.993
10,COc1ccc([C@]23OCC[C@H]2[C@H]2OC(=O)c4c(O)cc(C)c5c(O)cc(c2c45)O3)cc1,1.06
11,Cc1ccccc1S(=O)(=O)N1CCCc2nc(-c3ccccc3)ccc21,0.941
12,CCOC(=O)C1=C(C)NC(=O)NC1c1cc(OC)c(OC)c(OC)c1 (stereo not drawn),1.25
13,CC(C)c1c2c(nn1Cc1ccccc1)C(=O)NC2c1ccccc1 (stereo not drawn),0.96
14,CCOC(=O)C1CCCN(CCc2ccccn2)C1 (stereo not drawn),1.09
15,CCc1ccc(N2C(=O)c3[nH]nc(CC(C)C)c3C2c2ccc(F)cc2)cc1 (stereo not drawn),0.971
16,COC(=O)[C@H]1[C@H](C(=O)OC)[C@@H](c2ccc3c(c2)OCO3)[C@@H]1c1ccc2c(c1)OCO2,1.04
17,COC(=O)c1nnc(C=O)c2c1[nH]c1ccccc12,1.03
18,CC1=NCCNC2=C1C(c1ccc(F)cc1)NC2=O (stereo not drawn),1.1
19,C=C(C)C1[C@H](c2cc(O)c(O)c3oc4cc(O)cc(O)c4c(=O)c23)C=C(C)C[C@H]1c1cc(O)c(O)c2oc3cc(O)cc(O)c3c(=O)c12 (stereo partly drawn),active: 0.0122
20,C=CCC[C@@H](O)COc1cc2c(cc1C1(c3cc4c(cc3OC[C@H](O)CCC=C)OCO4)C(=O)Nc3cc(F)ccc31)OCO2,1.08
21,CC(C)[C@@H]1NC(=O)CCCCOC(=O)C/C=C/[C@H](C)[C@H](c2ccccc2)NC1=O,1
22,COc1ccc(N2C(=O)c3[nH]nc(CC(C)C)c3[C@@H]2c2ccc(F)cc2)cc1,1.07
23,COc1ccc(-c2nc3c(c4c2C[C@H](C)OC4)CN(Cc2cc(OC)c(OC)c(OC)c2)CC3)cc1,0.93
24,CCc1ccccc1-n1nc(C)c2c1C(=O)NC2c1ccc(Br)cc1 (stereo not drawn),1.01
25,COCCN1C(=S)NC(c2ccc(C(F)(F)F)cc2)C(C(=O)OC)=C1C (stereo not drawn),1.27
26,COc1ccc(N2C(=O)c3[nH]nc(CC(C)C)c3C2c2ccccc2F)cc1 (stereo not drawn),1.08
27,COC(=O)C/C=C/[C@@H](C)[C@H](NC(=O)[C@@H](CC(C)C)NC(=O)OC(C)(C)C)c1ccccc1,1.07

row,SMILES,growth
1,CC1=C[C@@H](COc2cccc(F)c2)O[C@@]2(C1)C(=O)Nc1c(F)cccc12,0.938
2,COc1ccc2c(=O)c3ccccc3oc2c1OCC=C(C)C,1.11
3,C=CCOC(=O)/C=C/NC(=O)c1ccccc1,1.07
4,CCOC(=O)[C@@]1([C@@H](NC(=O)OC)c2cccc(F)c2)CCCC1=O,0.965
5,CC(C)C1=NCCN(C)C2=C1C(c1ccc(F)cc1)N(Cc1ccccc1)C2=O (stereo not drawn),0.977
6,Cc1ccc(C2NC(=O)c3nn(-c4ccc(OC(F)(F)F)cc4)c(C(C)C)c32)cc1 (stereo not drawn),1.03
7,CC(C)CNC(N)=S,1.12
8,COC(=O)/C=C/Cn1c(-c2ccccc2)nc2c(c1=O)[C@@H](c1ccccc1)[C@]1(c3ccc(OC)cc3)Oc3cc(OC)cc(OC)c3[C@]21O,1.09
9,COc1ccc([C@@]23Oc4cc(OC)cc(OC)c4[C@]2(O)[C@H](O)[C@H](C(=O)N(C)OC)[C@H]3c2cccc(OC)c2)cc1,0.955
10,COc1cccc(/C=N/N(C(=O)C(F)(F)F)c2ccc(C)cc2C)c1,1.01
11,O=C1C2=C(C(c3ccccc3)=NCCN2)C(c2ccc3c(c2)OCO3)N1Cc1ccccc1 (stereo not drawn),1.04
12,COc1ccc(NS(=O)(=O)N2CCOCC2)cc1,1.08
13,COc1cc2c(cc1OC)C[NH+](CCc1ccc(NC(=O)Cc3ccccc3C)cc1)CC2,1.14
14,Cc1cc2c(c(=O)o1)[C@@]1(C(=O)N(C)c3ccccc31)C1=C(CCCC1=O)O2,1.09
15,CCc1ccccc1-n1nc2c(c1C(C)C)C(c1cccc(C(F)(F)F)c1)NC2=O (stereo not drawn),1.03
16,C=C1CC[C@@H]2[C@@H](C(=O)C(C)C)C3=C(O[C@@]2(C)CC[C@@H]2[C@@H]1CC2(C)C)C(C)(C)C(=O)C(C)(C)C3=O,0.895
17,COc1ccc(-c2cnn3c(N)c(-c4ccc(F)cn4)cnc23)cc1,1.14
18,Cc1nn(C)c2c1C(c1ccc3c(c1)OCO3)NC2=O (stereo not drawn),0.955
19,COc1cc(CC=C(C)C)c2c(=O)c3ccc(Cl)cc3oc2c1O,1.21
20,CCNC1=NC(c2ccccc2)C(C(=O)OC)=C(C)N1Cc1ccc(C(F)(F)F)cc1 (stereo not drawn),0.882
21,CC(=O)OC[C@H]1O[C@H](C#Cc2ccc(Br)cc2)C=C[C@H]1OC(C)=O,1
22,CC(C)Cc1n[nH]c2c1C(c1ccc(F)cc1)N(c1ccc(F)cc1)C2=O (stereo not drawn),1.29
23,CC(C)n1cc(Nc2cc(O)cc(O)c2C(=O)N2CC[C@H](F)C2)cn1,1.09
24,O=C(c1c(O)cc(O)cc1Nc1ccnn1C1CCCCC1)N1Cc2ccccc2C1,0.946
25,C=CCN1C(=O)C2=C(C(CC(C)C)=NCCN2C)C1c1cccc(C(F)(F)F)c1 (stereo not drawn),0.942
26,CC(=O)c1cc(Br)c(O)c(Br)c1O,0.883

# — the supplement of paper PMC10986608
